{
  "source": "paper PMC4336329",
  "about": "(PLoS ONE, 2015)",
  "note": "Among all 310,000 compounds or so, about 2,200 (0.71%) showed an effect of 50% or more. Effects have a minus sign here. The list shows a part of the results.",
  "data": [
    {"molecular_target": "human ether-à-go-go-related gene (hERG) potassium channel (human, UniProt Q12809)", "sequence (Q12809 whole entry, looked up)": "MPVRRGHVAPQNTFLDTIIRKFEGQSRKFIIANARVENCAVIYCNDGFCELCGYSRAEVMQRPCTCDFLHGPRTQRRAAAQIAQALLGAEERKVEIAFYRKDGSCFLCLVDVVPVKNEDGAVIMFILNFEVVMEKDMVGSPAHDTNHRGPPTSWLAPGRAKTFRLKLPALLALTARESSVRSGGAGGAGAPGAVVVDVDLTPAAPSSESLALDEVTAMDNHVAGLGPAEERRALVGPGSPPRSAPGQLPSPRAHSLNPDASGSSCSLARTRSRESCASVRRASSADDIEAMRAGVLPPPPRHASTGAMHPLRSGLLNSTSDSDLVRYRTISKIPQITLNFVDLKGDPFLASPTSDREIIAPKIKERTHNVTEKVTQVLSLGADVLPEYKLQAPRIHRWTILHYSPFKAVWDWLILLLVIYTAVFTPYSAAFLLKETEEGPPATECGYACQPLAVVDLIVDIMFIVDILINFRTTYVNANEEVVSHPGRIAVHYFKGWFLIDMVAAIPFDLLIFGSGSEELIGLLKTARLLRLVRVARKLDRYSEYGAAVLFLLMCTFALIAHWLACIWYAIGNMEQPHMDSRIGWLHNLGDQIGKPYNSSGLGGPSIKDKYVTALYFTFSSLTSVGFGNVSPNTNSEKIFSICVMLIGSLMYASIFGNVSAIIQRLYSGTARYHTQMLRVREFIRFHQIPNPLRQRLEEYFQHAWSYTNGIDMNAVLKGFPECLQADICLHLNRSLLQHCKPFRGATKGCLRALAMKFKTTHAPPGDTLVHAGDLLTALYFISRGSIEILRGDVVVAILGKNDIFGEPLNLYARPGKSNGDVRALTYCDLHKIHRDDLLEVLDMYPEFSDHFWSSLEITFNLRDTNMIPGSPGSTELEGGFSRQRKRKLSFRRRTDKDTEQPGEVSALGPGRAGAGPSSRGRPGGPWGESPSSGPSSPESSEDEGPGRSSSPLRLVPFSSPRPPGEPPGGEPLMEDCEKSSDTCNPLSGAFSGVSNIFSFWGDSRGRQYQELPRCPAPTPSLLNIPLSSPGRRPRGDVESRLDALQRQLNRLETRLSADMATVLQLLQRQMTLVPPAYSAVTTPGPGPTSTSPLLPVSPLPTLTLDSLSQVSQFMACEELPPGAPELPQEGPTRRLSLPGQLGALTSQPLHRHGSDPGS", "experiment": "primary screen, population patch clamp on CHO cells stably expressing hERG", "units": {"hERG current change (%, negative = inhibition) at 1uM": "%"}, "values": [
      {"compound": "CC(c1ccccc1)N1C(=O)NC(NC(=O)c2cccnc2)(C(F)(F)F)C1=O", "note": "(centres unmarked)", "hERG current change (%, negative = inhibition) at 1uM": 8.94},
      {"compound": "O=c1[nH]c(CN2CCOCC2)nc2ccccc12", "hERG current change (%, negative = inhibition) at 1uM": 9.48},
      {"compound": "CN(CC(=O)Nc1ccc(Cl)c(Cl)c1)C(=O)CN1C(=O)NC2(CCCC2)C1=O", "hERG current change (%, negative = inhibition) at 1uM": 0.916},
      {"compound": "COC(=O)C1(c2ccccc2)NC(c2ccc(O)cc2)C2C(=O)N(c3ccc4c(c3)OCO4)C(=O)C21", "note": "(centres unmarked)", "hERG current change (%, negative = inhibition) at 1uM": -0.305},
      {"compound": "CC(C)OC(=O)c1nnc(Cc2ccc(Cl)cc2)o1", "hERG current change (%, negative = inhibition) at 1uM": 9.35},
      {"compound": "Cc1nc2nc(-c3ccco3)[nH]n2c(=O)c1Cc1ccccc1", "hERG current change (%, negative = inhibition) at 1uM": -12},
      {"compound": "CC(C)c1ccc(N(CC(=O)O)S(=O)(=O)c2cccnc2)cc1", "hERG current change (%, negative = inhibition) at 1uM": 6.39},
      {"compound": "COc1ccc([C@@H]2CC=C(C(=O)O)[C@H](c3cccc(Cl)c3)N2S(=O)(=O)c2ccc(Cl)cc2)cc1", "hERG current change (%, negative = inhibition) at 1uM": 15.2},
      {"compound": "c1csc(Cc2nn3c(-c4n[nH]c5c4CCC5)nnc3s2)c1", "hERG current change (%, negative = inhibition) at 1uM": -1.46},
      {"compound": "COc1ccc(/C=C/C(=O)NC2CCCCCCC2)cc1S(=O)(=O)N1CCOCC1", "hERG current change (%, negative = inhibition) at 1uM": 8.8},
      {"compound": "CCNC(=O)COc1ccc(S(=O)(=O)Nc2ccccc2)cc1", "hERG current change (%, negative = inhibition) at 1uM": 0.774},
      {"compound": "COc1ccc([C@@H]2C=C(C(=O)O)O[C@H](OCCCCO)C2)cc1", "hERG current change (%, negative = inhibition) at 1uM": 12.7},
      {"compound": "C#Cc1ccc([C@@H]2C=C(C(=O)N3CCOCC3)O[C@H](OCc3ccc(CO)cc3)C2)cc1", "hERG current change (%, negative = inhibition) at 1uM": 6.25},
      {"compound": "Cc1nc2scc(C)n2c(=O)c1S(=O)(=O)NCC1CCN(Cc2ccc(Cl)cc2)CC1", "hERG current change (%, negative = inhibition) at 1uM": -12.8},
      {"compound": "COc1cc(CNc2ccc3[nH]c(=O)[nH]c3c2)ccc1OCc1cccc(C)c1", "hERG current change (%, negative = inhibition) at 1uM": 16.8},
      {"compound": "O=C(c1cc(Br)ccc1OC(F)F)N1CCN2CCCC2C1", "note": "(centres unmarked)", "hERG current change (%, negative = inhibition) at 1uM": 7.24},
      {"compound": "c1ccc(C[C@H]2CNCCN2CC2CCCCC2)cc1", "hERG current change (%, negative = inhibition) at 1uM": -1.78},
      {"compound": "Cc1ccc(-c2ccc(=O)n(CCC(=O)N3CCN(c4ccccc4)CC3)n2)cc1", "hERG current change (%, negative = inhibition) at 1uM": -19.9},
      {"compound": "CCN1CCN(C(=O)CSc2nc(N)cc(N)n2)CC1", "hERG current change (%, negative = inhibition) at 1uM": 20.2},
      {"compound": "Cc1c(Cl)cccc1N/C(SCC(=O)N1CCCCCC1)=C(/C#N)c1nc2ccccc2s1", "hERG current change (%, negative = inhibition) at 1uM": 1.3},
      {"compound": "COc1ccc(-c2cn3nc(C)c(C)nc3n2)cc1OC", "hERG current change (%, negative = inhibition) at 1uM": 15.3},
      {"compound": "Cc1cc(Br)ccc1NC(=O)CN(C)C(=O)c1ccc(-n2cncn2)c([N+](=O)[O-])c1", "hERG current change (%, negative = inhibition) at 1uM": -19.5},
      {"compound": "CCCN1CC(=O)N2C(c3ccccc3)c3[nH]c4ccccc4c3C[C@H]2C1=O", "note": "(some centres unmarked)", "hERG current change (%, negative = inhibition) at 1uM": 1.54}
    ]}
  ]
}
